In paper PMC12136788:
The other results are listed elsewhere or left out.

T1: UNK ZnF1-3 (human, UniProt Q9C0B0 31-174)
T1 sequence: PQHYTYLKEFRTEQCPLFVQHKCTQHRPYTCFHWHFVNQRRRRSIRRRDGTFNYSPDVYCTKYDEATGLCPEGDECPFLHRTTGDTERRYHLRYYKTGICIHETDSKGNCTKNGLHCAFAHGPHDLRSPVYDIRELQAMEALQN

B1: chr14:78183846:78183847:+_ENSG00000119705_ENST00000557342|hu_hu|hu_hu_hu_mus_False|68_108 (ssRNA)
RNA: GGGAGUUCUACAGUCCGACGAUCUCUGUCUCAAAAAUCUUCAUCAGAUGUUUGAGCUCCGUGCAAAAGUUUUGGCCUUUGAGCUUGAACGUGGAUCUAUGGGAGGGAAAGCACUGUCAGAAAAGGUAAUUUUUUUUUUAAAGACAACAGAGGAUUGAGCAUCA
B2: chr14:96997824:96997825:+_ENSG00000090060_ENST00000216277|hu_hu|motif|central (ssRNA)
RNA: GGGAGUUCUACAGUCCGACGAUCAUUUUUUAGCAGACUGUCAUCUCGUAGAUCCAAAUCUUCAGGAAUUGUCUGCAGUGCGGAUCUUGCAAACAAAAUAUCAAUCUCUAUCCCAUCAAAACAGAGUUUAAUAACUGGUACGAACAACAGAGGAUUGAGCAUCA
B3: chr4:144447494:144447495:+_ENSG00000153147_ENST00000283131|hu_mus|motif|central (ssRNA)
RNA: GGGAGUUCUACAGUCCGACGAUCCCAGUUGUGCAAUGUAGACUUGGGAACCAAAACCAUAUGAGGACCAGGAAUAUUUCGGUAGUGUUUCAUGUAUCCAAGAAGAGAAAUUGUUUGAAGUGUCUUUCCCAAACCCAUUUCAUCCAACAGAGGAUUGAGCAUCA
B4: chr17:66519878:66519879:+_ENSG00000108946_ENST00000358598|hu_hu|FALSE|FALSE (ssRNA)
RNA: GGGAGUUCUACAGUCCGACGAUCACUUCUCUCAUUAUCAUCAAGAUGUGAAAACAGCACAUUCUUUUCAAUGGCUUUGGCUAAAGCGGCCAUUGUCUUGUAAUCUUUUGGUAUAACCUUUCUAACAUAGGAUGCCGCAUCUUCCAACAGAGGAUUGAGCAUCA
B5: chr3:58389886:58389887:+_ENSMUSG00000075700_ENSMUST00000107924|mus_hu|motif|central (ssRNA)
RNA: GGGAGUUCUACAGUCCGACGAUCCUUGCCAACAAUUAUUAAGCCUAUUAAUACUAGUUUGAAGACUGACAGGAAAGAUGCGGUGUGUCUAUAUAUUGGUUGAGGGAGGUAAUUCUCUCCUUCAAUGCGGAUGUCUGGGUACCGCAACAGAGGAUUGAGCAUCA
B6: chr3:87781927:87781928:+_ENSMUSG00000004891_ENSMUST00000090973|mus_hu|motif|central (ssRNA)
RNA: GGGAGUUCUACAGUCCGACGAUCUCCCUUUCCCAGGUUCUCUUCCUCUUCCAGAUUCCUUUGACUUUCCUUGUCGGCCUCCUCUGGAGAUCUCAAAUUCUCCAGGUUCCAUGCUCCCAGAGAUCUCAAUGAUUCCUGAUUCUCCAACAGAGGAUUGAGCAUCA
B7: chr7:118222036:118222037:-_ENSMUSG00000005610_ENSMUST00000162415|mus_hu|motif|central (ssRNA)
RNA: GGGAGUUCUACAGUCCGACGAUCAUCAAAGUUUGGUGCAUCUUCUGCCAAUCGCAGACAUAGCUGAGCAUACAGUGAGCGGUACUUUGGCUCUUCUAGGGCUUUGUCCACAAUCAGCAGUAUGACCCCUUUAAGGAUGAGUUUCAACAGAGGAUUGAGCAUCA
B8: chr1:174042033:174042034:+_ENSMUSG00000026553_ENSMUST00000135192|mus_mus|FALSE|FALSE (ssRNA)
RNA: GGGAGUUCUACAGUCCGACGAUCAGGACGACACUCUCUGUCUAGGCAGUAUACAUUAUUGCCCUUCACUCUGGUGACAUAGAUGGGUAAAUCCAGAGUUCGGAUAAUCCCAUGGUCCCCAGUGGUGACAGCAUAUUUGAUGUGCAACAGAGGAUUGAGCAUCA
B9: chr6:119166446:119166447:+_ENSMUSG00000041477_ENSMUST00000149651|mus_mus|FALSE|FALSE (ssRNA)
RNA: GGGAGUUCUACAGUCCGACGAUCUGCCCAAGGCCUUUGUUUUAAAAAUCAUGAACAAUUUCUGAGGACCUACUCUGAGCUAUGUGAUGAAACAAGUAAAAAAGAUCAAGAUUUUUAAAUAAAUAAAAUAAAAAUAAAAAUAAACAACAGAGGAUUGAGCAUCA
B10: chr3:58389919:58389920:+_ENSMUSG00000075700_ENSMUST00000107924|mus_mus|FALSE|FALSE (ssRNA)
RNA: GGGAGUUCUACAGUCCGACGAUCGCUAGGAGCUUGCAUGCCGAAAAAAGCAAAAGGAUCUUUGCCAACAAUUAUUAAGCCUAUUAAUACUAGUUUGAAGACUGACAGGAAAGAUGCUAUGUGUCUAUAAAUUGGUUGAGGGAGCAACAGAGGAUUGAGCAUCA
B11: chr6:38652254:38652255:-_ENSG00000124767_ENST00000373365|hu_hu|hu_hu_hu_mus_False|88_108 (ssRNA)
RNA: GGGAGUUCUACAGUCCGACGAUCCGAAAACUUCAUAGCAGGGAAGUCACAUUUUUGCAGGAGGGUCAGUCCAAGAACCCUCGUAUAAAAAUCCAGGGACUUCUUAGGAUCCUUAAUUCUUAGCAUCGUUUGCUGCAGUAGAAACAACAGAGGAUUGAGCAUCA
B12: chr2:130640030:130640031:-_ENSMUSG00000027309_ENSMUST00000044766|mus_hu|FALSE|FALSE (ssRNA)
RNA: GGGAGUUCUACAGUCCGACGAUCAUAGCGAAAGUUUACAGGAUUACAGUACAGAUGGACGCUAUCCGAUUUAAUCAAUAUAAUUACAUCAUCUAGUACUUCUUCAGAAAAUCCCGUUUUCUCAAAAUCACUGGUAUUCUGAUUCAACAGAGGAUUGAGCAUCA
B13: chr17:8508246:8508247:-_ENSG00000133026_ENST00000269243|hu_hu|FALSE|FALSE (ssRNA)
RNA: GGGAGUUCUACAGUCCGACGAUCGUACAUUUCAAUAAUAUUCUCAGAGUAAAUUGGAAGAUUCUUGUAAGGGUUUAUAACUACACAGAAGAGUCCAGAAUAAGUAUAGAUUAGUCCUGAAUAGUAGCGAUCCUUCAGAUUAUGCAACAGAGGAUUGAGCAUCA
B14: chr5:180275300:180275301:-_ENSG00000196670_ENST00000512132|hu_mus|FALSE|FALSE (ssRNA)
RNA: GGGAGUUCUACAGUCCGACGAUCAGUUGUGAUCUUCCUACCACAAACCAUUACUGUUAAGUCUAUAAUUCAUGACCCACUAAUAAACUGAUAUUCCCUGAAACCAUCCUCUCCCUGAAUUUGCCUGUUGGAGGCCCUUCUUGGCAACAGAGGAUUGAGCAUCA
B15: 53426069_53429338_2499_3pUTR_ENSMUSG00000032030_ENSMUST00000166367|mouse|control|control (ssRNA)
RNA: GGGAGUUCUACAGUCCGACGAUCCAUUGCUAAUUUUCUUUCUCAUUUUCAUUAUUUGUAUGAUGGCUUCCUGGGUUCUUAAUAUUCUUAGUUGGACUAUCCCUUCAUUUUCUUCUUCUCUCAUUCGUUCUGUAGUGAGCUGCACAACAGAGGAUUGAGCAUCA
B16: chr2:117085994:117085995:+_ENSMUSG00000027349_ENSMUST00000028825|mus_mus|motif|central (ssRNA)
RNA: GGGAGUUCUACAGUCCGACGAUCAGACUUGGGGACCCCGAGGGCAUCACAUACAGCUUGAACUUCCUGGCAAAUUUCACGGUUUUUAUCUAACUGAGAAUUUUUAUGUUUUUUCUUCUGUAAUAUUUGUAAAGCUUGAAGUUCCAACAGAGGAUUGAGCAUCA
B17: chr1:60041781:60041782:+_ENSMUSG00000041040_ENSMUST00000036540|mus_hu|mus_mus_mus_hu_False|8_78 (ssRNA)
RNA: GGGAGUUCUACAGUCCGACGAUCAAGUUUACAAUAGUAAAGUAAAUGCAGUAGUGGAAUGGCAAGUUUUAUUUUCCUUCACAAAAGAAAAUCUUUAUAACCCAGUCCUAGUCUUGGACAUAGUGAAUCUCCAUGGGUCUGACUCAACAGAGGAUUGAGCAUCA
B18: chr9:37357388:37357389:+_ENSG00000147905_ENST00000336755|hu_mus|FALSE|FALSE (ssRNA)
RNA: GGGAGUUCUACAGUCCGACGAUCUGGACACAGACCUGAACUCUUUGUGGUCUCUGUACAGCCACUCCAGGCAUGGCCGGAACUCAGCAUUCAAUCCCAGCGUCUCAUUAACAGGUACUUAAGCACUUCCAGGACACUGAAGCGCAACAGAGGAUUGAGCAUCA
B19: chr18:47008509:47008510:-_ENSG00000177576_ENST00000318240|hu_hu|motif|central (ssRNA)
RNA: GGGAGUUCUACAGUCCGACGAUCCUGGCACAAACCUUCUAUUUAAUCAUAUUAUUCAAACAGCAAUAACAGAAAUGAAAGCGGCAUUAACGAAAAAGGAACUUAGGAAUGAGGUCAUUAAAUAUAACUAACUACAUUUUAAAUCAACAGAGGAUUGAGCAUCA
B20: chr9:95013113:95013114:-_ENSG00000196305_ENST00000443024|hu_hu|hu_hu_hu_mus_False|58_108 (ssRNA)
RNA: GGGAGUUCUACAGUCCGACGAUCCUCAGUGAGAAAAGGCGUGUAAGGGGCCAUCAGUCUGCACAGAGAAAGCAGGACACUAAACAAUGUCUCCAGAGCCAUGACACAGUCUUCCACCCCACUCUCACCCUUUAACCUCCUCCUCAACAGAGGAUUGAGCAUCA
B21: chr11:102150864:102150865:-_ENSMUSG00000059995_ENSMUST00000137387|mus_hu|motif|central (ssRNA)
RNA: GGGAGUUCUACAGUCCGACGAUCAAUUAGUACAGAACCCCCCCACACACACUCAGACACAGGAUACAGGGUGGACGACACCGGGCCGGGGUGGGAAGGAUGGGAAUUGAAACCCACACAGCCUGCUGUUAGAGGGAGGGGAGUCAACAGAGGAUUGAGCAUCA
B22: chr3:139076767:139076768:-_ENSG00000184432_ENST00000507777|hu_mus|FALSE|FALSE (ssRNA)
RNA: GGGAGUUCUACAGUCCGACGAUCACUUUAAUCAUCCAGAAUAUCUUCAUCCAGAUUAAUGUCUGUUGUGUCAAUAUCCUCUAAUUCCAAGUUAUCCAAAUCAACUUCUAGUUCUAGUAAACUCUUUUCUUCUUUGUGGGUAGUCAACAGAGGAUUGAGCAUCA

What follows are binders tested against T1, UNK ZnF1-3 (assay: nsRBNS (natural sequence RNA bind-n-seq); RBNS binding buffer (assumed for nsRBNS): 25 mM Tris pH 7.5, 150 mM KCl, 3 mM MgCl2, 0.01% Triton X-100, 500 ug/ml BSA, 20 U/ml SUPERase-In, 4 C; UNK is unkempt and MSI1 is Musashi-1; names of the RNAs are library labels; protein concentration not given here; high values mean tight binding).

Row | Binder | binding signal [enrichment R]
1 | B1 | 1.98
2 | B2 | 0.669
3 | B3 | 1.56
4 | B4 | 0.866
5 | B5 | 1.07
6 | B6 | 0.5
7 | B7 | 0.648
8 | B8 | 0.724
9 | B9 | 0.877
10 | B10 | 1.83
11 | B11 | 0.85
12 | B12 | 0.578
13 | B13 | 1.37
14 | B14 | 0.812
15 | B15 | 0.337
16 | B16 | 1.2
17 | B17 | 0.749
18 | B18 | 1.04
19 | B19 | 1.94
20 | B20 | 1.6
21 | B21 | 1.73
22 | B22 | 0.427
